About 200 (0.44%) of roughly 45,000 compounds were called active. About 7% were inconclusive and are not listed. The call rests on the fitted dose curve; in most records, active means well fitted activation curve with a large enough effect; inconclusive means small, poorly fitted or top-dose-only effect; inactive means no such curve, though single readings can be large or run the other way. Some of the results follow.
Test: qHTS of TDP-43 Inhibitors: NCGC Sytravon Library Screen; further: 0% is about no effect; nearly all actives have a fitted effect of over 55% in size
Settings: yeast TDP-43 toxicity rescue, BacTiter-Glo growth, 24 h; series mostly up to 46.1 µM; growth rescue (activation): at the top concentration
Outline: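 TDP-43-expressing yeast, pregrown in raffinose, seeded at OD600 0.02 in galactose medium with compound for 24 hr at 30 deg C. Growth read by BacTiter-Glo luminescence, so rescue of toxicity appears as activation.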

Structure (SMILES) | growth rescue (activation)
COc1cccc(CNC(=O)Cc2ccc(-c3ccccc3)cc2)c1 | inactive: 27.7%
Cc1ccc(C(=O)Nc2cccc(NC(=O)c3cccnc3)c2)cc1 | inactive: -2.85%
OC(c1cccc(Cl)c1)c1ncc(-c2ccccc2Cl)[nH]1 (centres undefined) | inactive: 7.51%
Cc1ccc(C2C3=C(CCCC3=O)N=C3c4ccccc4C(=O)C32)cc1 (centres undefined) | inactive: -4.81%
CCc1nc2ccc(C(=O)NCc3ccc4c(c3)OCO4)cn2c1N(C)Cc1cccs1 | inactive: 13.2%
CCCCCCn1c(=O)[nH]c2nc3cc(N)ccc3nc2c1=O | inactive: 14.7%
Cc1cc(C)c(S(=O)(=O)NCCCn2ccnc2)c(C)c1 | inactive: 15.8%
O=C(COc1ccccc1[N+](=O)[O-])N(Cc1ccccc1)c1ccccn1 | inactive: 7.19%
COC(=O)C1=C(C)NC(=O)NC1c1ccco1 (centres undefined) | inactive: 1.86%
CC1(C)C2CC=C(/C=N/NC(=O)c3ccc(O)cc3)C1C2 (centres undefined) | inactive: 0.206%
CC1(C(=O)NS(=O)(=O)c2cccc(Cl)c2)CCN1C(=O)CC1CCCCC1 (centres undefined) | inactive: -1.18%
Cc1nc(NCCc2ccc(F)cc2)c2nnn(Cc3ccccc3)c2n1 | inactive: -7.4%
CCOC(=O)C(=Cc1c[nH]c2ccc(S(=O)(=O)N(C)C)cc12)C(=O)OCC | inactive: 8.08%
O=C1CCCC(O)=C1N=Nc1c(Cl)cc(Cl)cc1Cl | inactive: 8.39%
O=C(Cc1ccc(Cl)cc1)N/N=C/c1c(Cl)cccc1Cl | inactive: 0.0105%
O=C(O)C1(S(=O)(=O)c2ccc(Cl)cc2)CCC1 | inactive: 0.773%
CCN(CC)C(=O)c1cccc(-c2csc(C(O)c3ccc(F)c(OC)c3)n2)c1 (centres undefined) | inactive: 1.08%
COC(=O)c1ccc(COC(=O)C(CCS(C)(=O)=O)N2C(=O)c3ccccc3C2=O)cc1 (centres undefined) | inactive: 12.4%
COc1ccc(Cl)cc1NC(=O)c1cc2c(=O)n3ccccc3nc2s1 | inactive: 2.74%
O=C(O)C(C/C(=N/O)c1ccc(Br)cc1)P(=O)(c1ccccc1)c1ccccc1 (centres undefined) | inactive: -5.19%
O=C(NCc1cccnc1)C1CCN(S(=O)(=O)c2cc([N+](=O)[O-])ccc2Cl)CC1 | inactive: 15.4%
O=C(O)c1cc(S(=O)(=O)Nc2ccc(OCc3ccccc3)cc2)ccc1Br | inactive: 6.47%
Cn1c(CC(=O)Nc2ccc(F)cc2)nnc1SCC(=O)NC1CCCCC1 | inactive: 12.3%

Structure (SMILES) | growth rescue (activation)
O=C1Nc2ccccc2Oc2cc(Oc3ccccc3)ccc21 | inactive: 4.6%
COc1ccc(OCCN2CCC(C(=O)NC(c3ccc(C)cc3)c3ccccn3)CC2)cc1 (centres undefined) | inactive: 13.8%
O=C(NCCCN=C1NS(=O)(=O)c2ccccc21)c1ccc(Cl)cc1 | inactive: 1.13%
COc1ccc(/C=N/Nc2ncc(Br)cn2)c(OC)c1 | inactive: 10.3%
Cc1ccc(CNc2nc3cc(-c4ccccc4)sc3c(=O)n2C)c(C)c1 | inactive: 5.65%
CSc1ncccc1C(=O)OCC(=O)c1cccs1 | inactive: 17.9%
COc1ccc(CCNC(=O)COC(=O)CCC(=O)c2cccs2)cc1OC | inactive: 8.51%
CCn1nc(C)c(CN2CCC(n3nccc3NC(=O)CCCc3ccccc3)CC2)c1C | inactive: -9.27%
O=C(NCC1CCCO1)c1nn2c(C(F)(F)F)cc(-c3ccc(Br)o3)nc2c1Br (centres undefined) | inactive: 5.55%
O=c1c2sccc2[nH]c(=S)n1-c1ccccc1 | inactive: -4.92%
CC(=O)c1c(C)oc2ccc(N(C(C)=O)S(=O)(=O)c3cccc4cccnc34)cc12 | inactive: -5.81%
CC(=O)c1c(C(C)=O)c(C)n(-c2nc(-c3ccccc3)c(C)s2)c1C | inactive: 28.2%
O=C(Nc1nnc(CC2=CCCCC2)s1)Nc1ccccc1F | inactive: 17.4%
Cc1ccc(S(=O)(=O)N2CCCCC2)cc1NC(=O)CSc1ccc2c(c1)OCCO2 | inactive: 19.5%
CN1CCCCCC1C(=O)N1CCC(N2CCC(C(=O)N3CCOCC3)CC2)CC1 (centres undefined) | inactive: 4.36%
Cc1ccc(S(=O)(=O)NCc2ccncc2)cc1C | inactive: -0.618%
O=C(NC1CCCCC1)C1CC(=O)N(c2cccc([N+](=O)[O-])c2)C1 (centres undefined) | inactive: -20.7%
CC(=O)C1=C(O)C(=O)N(CCNCCO)C1c1ccccc1 (centres undefined) | inactive: -0.54%
O=C(NCc1ccncc1)c1ccc(NS(=O)(=O)c2ccccc2)cc1 | inactive: 5.52%
O=C(COc1ccccc1Cl)NCCCNC(=O)c1cnccn1 | inactive: 8.1%
CC(=O)NCCc1ccc(C(=O)COC(=O)c2cccn2C)cc1 | inactive: 6.05%
CCCCNC(=O)CSc1nc2ccsc2c(=O)n1CCCC(=O)NCCc1ccc(S(N)(=O)=O)cc1 | inactive: 10.6%
O=[N+]([O-])c1ccc(C2=Nn3cnnc3SC2)cc1 | inactive: 11.2%

Structure (SMILES) | growth rescue (activation)
CC1Cc2ccccc2N1C(=O)Cn1cnc2ccccc21 (centres undefined) | inactive: 5.8%
OCCC1CCCCN1CC(O)COCc1ccc(Cl)cc1 (centres undefined) | inactive: -17.7%
CCOC(=O)c1cc(-c2ccc(OC)cc2)nc2c1c(C)nn2CCC(N)=S | inactive: 23%
Cc1cc(C)c(NC(=O)C2CCN(c3nc4ccccc4n4cccc34)CC2)c(C)c1 | inactive: 7.35%
NC(N)=NN=C1CCC(c2ccccc2)CC1 (centres undefined) | inactive: -18.6%
CCC(=O)Nc1cc(C(=O)O)ccc1Sc1ccc(Cl)cc1 | inactive: -8.86%
Cc1c([N+](=O)[O-])cc(C(=O)Nc2ccc(NC(=O)c3ccco3)cc2)cc1[N+](=O)[O-] | inactive: 5.11%
O=C(O)CCCC(=O)Nc1cc([N+](=O)[O-])ccc1O | inactive: -2.68%
CCN(CC)S(=O)(=O)c1ccc2c(c1)N(CC(=O)Nc1ccccc1F)C(=O)C1CCCN21 (centres undefined) | inactive: -1.38%
Nc1ccc(CSc2ccc(Cl)cc2)cc1 | inactive: -31.1%
O=C1c2ccccc2NC(c2cccc(O)c2)N1NS(=O)(=O)c1ccccc1 (centres undefined) | inactive: -20.3%
O=C(O)CSc1nnc(COc2cccc3ccccc23)n1Cc1ccccc1 | inactive: -0.724%
Cc1nc2ccccc2c(=O)n1NC(=O)C1CCC(C(C)(C)C)CC1 (centres undefined) | inactive: -1.13%
O=C(CCc1c[nH]c2ccccc12)NCCc1ccc2c(c1)OCCO2 | inactive: 11.6%
CCOc1ccc(C(=O)Nc2cccc(-c3nc4ccccc4[nH]3)c2C)cc1[N+](=O)[O-] | inactive: 2.01%
COC(=O)c1ccc2c(c1)NC(=O)C(N(CC(C)C)CC(C)C)S2 (centres undefined) | inactive: 6.56%
Cc1ccccc1C(=O)N1CCC(C(=O)NC2CCCCC2)CC1 | inactive: 14.4%
C=CCOc1c(CNc2ccc(C(=O)O)cc2)cccc1OC | inactive: 21.4%
CN(CC(=O)Nc1ccc(F)cc1)c1ccc(S(=O)(=O)N2CCCCC2)cc1[N+](=O)[O-] | inactive: 11.8%
Cc1ccc(N2CCN(C(=O)N3CCOCC3)CC2)cc1C | inactive: -7.29%
CCOc1ccccc1NC(=O)CSc1nncc2ccccc12 | inactive: -16.7%
O=C(N/N=C/c1cc([N+](=O)[O-])ccc1O)NC12CC3CC(CC(C3)C1)C2 | inactive: 3.01%
O=C(Nc1cccc(S(=O)(=O)Nc2ccccc2F)c1)c1ccc2ccccc2n1 | inactive: -30.5%

Reference: PubChem BioAssay AID1347073 (National Center for Advancing Translational Sciences (NCATS), 2019)
